Data published in PubChem BioAssay AID1919007 (Molecular Pharmacology Branch, DTP, NCI, 2023).
“And” between values parts separate entries of the source, which are not always exact repeats. Equal entries are not always repeated. This continues a long series; more values of the same kind are listed elsewhere.

System: A498 complex spheroids with HUVEC/MSC, growth
Assay: Anticancer human tumor A498 cell line growth inhibition [AhR];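 note: luminescence signal used as a surrogate for viable cells; seven day exposure starting three days after spheroid seeding; luminescence viability scaled so 100% equals DMSO vehicle wells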
Details: stronger effect = lower value
Text: Multicellular complex tumor spheroid response to aryl hydrocarbon receptor antagonists in combination with a variety of drugs and investigational agents in selected tumor cell lines
The current study was undertaken to assess response to aryl hydrocarbon receptor antagonists in combination with standard-of-care drugs and investigational agents in solid tumor complex spheroid models. Complex spheroids include a stromal component modeled by human endothelial cells (HUVEC) and fibroblasts modeled by human mesenchymal stem cells (MSCs). The concentration ranges selected for each drug and investigational agent were based upon clinically achievable concentrations if the clinical Cmax of the agent was known.
Compounds. The drugs and investigational agents: BAY 2416964 (NSC825713), GNF351 (NSC835774), CH-223191 (NSC835775), CPI-455 (NSC825282), aza-TdCyd (NSC777586), decitabine (NSC127716), belinostat (NSC758774), entinostat (NSC756642), pevonedistat (NSC761192), tazemetostat (NSC777109), talazoparib (NSC765396), olaparib (NSC753686), selinexor (NSC780203), nedisertib (M3814, NSC802822), bortezomib (NSC756655), venetoclax (NSC766270), doxorubicin (NSC123127), elimusertib (BAY189344, NSC800525), ceralasertib (AZD6738, NSC777638), TAK-243 (NSC785004), alisertib (NSC759677), etoposide (NSC141540), topotecan (NSC609699), eribulin (NSC707389), gemcitabine (NSC613327), carboplatin (NSC241240), cisplatin (NSC119875), and SN-38 (NSC673596) were obtained from the National Cancer Institute (NCI) Developmental Therapeutics Program Chemical Repository (32). The FDA-approved anticancer drug set is available from the Developmental Therapeutics Program at https://dtp.cancer.gov/organization/dscb/obtaining/available plates.htm. […] The stock solutions were prepared in dimethyl sulfoxide (DMSO, Sigma-Aldrich, St. Louis, MO, cat. D2650), except for the platinum compounds which were prepared in saline (Quality Biological, Gaithersburg, MD, cat. 114-055-101), at 800-fold the tested concentration and stored at -70 degrees C prior to their use. All drugs and investigational agents were tested over a range starting from a high concentration at or near the clinical Cmax and decreasing in half-log increments. If the clinical Cmax for an agent had not been determined, the highest concentration tested was 10 microM (Table 1).
Cell Culture. All cells were maintained in an incubator at 37 degrees C and 5% CO2 with 95% humidity. The PDC lines were cultured according to standard operating procedures established by the NCI PDMR (https://pdmr.cancer.gov). Briefly, all PDCs were thawed and cultured in Matrigel-coated flasks prepared with a working solution of 1X Ham's F-12 nutrient mix, without supplementation (Invitrogen, Waltham, MA, cat. 11765054), 100 U/mL penicillin-streptomycin (Invitrogen, cat. 15140122), and 2.5% Matrigel (Corning Inc., Corning, NY, cat. 354248) for the first three passages. All PDCs were cultured in complete DMEM/F-12 media containing advanced DMEM/F-12 (Invitrogen, cat. 12634028), 4.9% defined fetal bovine serum, heat inactivated (HyClone Laboratories Inc., Logan, UT, cat. SH30070.03HI), 389 ng/mL hydrocortisone (Sigma-Aldrich, cat. H4001), 9.7 ng/mL human EGF recombinant protein (Invitrogen, cat. PHG0313), 23.4 microg/mL adenine (Sigma-Aldrich, cat. A2786), 97.3 U/mL penicillin-streptomycin (Invitrogen, cat. 15140122), 1.9 mM L-glutamine (Invitrogen, cat. 25030081), and 9.7 microM Y-27632 dihydrochloride (Tocris Bioscience, Bristol, United Kingdom, cat. 1254). The PDCs were cultured in complete DMEM/F12 media without 10 microM Y-27632 dihydrochloride for at least two passages prior to the screen. The established cell lines NCI-H1341 and […] were cultured in DMEM/F-12, HEPES (Invitrogen, cat. 11330032), 5% defined fetal bovine serum (HyClone Laboratories Inc., cat. SH30070.03), ITS premix universal culture supplement [insulin (5 microg/mL), transferrin (5 microg/mL), and selenious acid (5 ng/mL)] […]

SMILES | viability, T/C (compound 0.316 µM) | viability, T/C (compound 3.16 µM) | viability, T/C (compound 10 µM) | viability, T/C (compound 0.1 µM) | viability, T/C (compound 1 µM)
Cc1ccccc1N=Nc1ccc(NC(=O)c2ccnn2C)c(C)c1 | 89.8% [middle of 5 runs] | 79.7% [middle of 4 runs] | 85.9% [middle of 5 runs] | – | –
Cc1cncc(-c2nc(NCCc3c[nH]c4ccccc34)c3ncn(C(C)C)c3n2)c1 | 96.3% [middle of 5 runs] | 54.5% and 45.5% and 49.8% | 5.41% and 3.13% and 3.53% | 90.2% [middle of 5 runs] | 92.4% [middle of 4 runs]
CC(CO)NC(=O)c1cc(-c2ccc(Cl)cc2)nn(-c2cnn(C)c2)c1=O (stereo not drawn) | 86.7% and 94% and 87% | 77.3% [middle of 5 runs] | 65% [middle of 6 runs] | 92.8% [middle of 5 runs] | 92.1% [middle of 4 runs]
